Where “and” joins values, the source holds several entries; their conditions need not be identical. Identical values can stand only once. Out of some 270,000 compounds screened, about 5,800 (2.1%) were called active. The inconclusive results got no clear call from the source; some entries with a clear call stand among them for comparison. The call rests on the fitted dose curve; in most records, active means well fitted inhibition curve with a large enough effect; inconclusive means small, poorly fitted or top-dose-only effect; inactive means flat fitted curve, though single readings scatter. Where the call is inconclusive, the potency comes from a doubtful curve fit.
What follows are compounds tested against Microtubule-associated protein tau (Homo sapiens) (UniProt P10636) (assay: qHTS for Inhibitors of Tau Fibril Formation, Thioflavin T Binding). Details: recombinant tau K18 P301L (four-repeat tau fragment), heparin-induced fibrillization, ThT fluorescence; series mostly up to 57.4 µM; activity, negative = inhibition: at the top concentration.
In short: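 K18 P301L tau (15 uM + 0.24 uM Alexa 594-tagged), heparin 20 uM, NaOAc pH 7, 6 h 37 C; ThT 30 uM, 1 h RT, ex 450/em 510 nm.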
Further: nearly all actives have a fitted effect of over 55% in size.
On the % scale 0 is the no-effect control and ±100 the full control effect; potency means the concentration at half of the fitted maximal effect; tags describe the fitted curve by direction and shape.

Chain of UniProt P10636 (P10636 whole entry, looked up, the tested form may be a part): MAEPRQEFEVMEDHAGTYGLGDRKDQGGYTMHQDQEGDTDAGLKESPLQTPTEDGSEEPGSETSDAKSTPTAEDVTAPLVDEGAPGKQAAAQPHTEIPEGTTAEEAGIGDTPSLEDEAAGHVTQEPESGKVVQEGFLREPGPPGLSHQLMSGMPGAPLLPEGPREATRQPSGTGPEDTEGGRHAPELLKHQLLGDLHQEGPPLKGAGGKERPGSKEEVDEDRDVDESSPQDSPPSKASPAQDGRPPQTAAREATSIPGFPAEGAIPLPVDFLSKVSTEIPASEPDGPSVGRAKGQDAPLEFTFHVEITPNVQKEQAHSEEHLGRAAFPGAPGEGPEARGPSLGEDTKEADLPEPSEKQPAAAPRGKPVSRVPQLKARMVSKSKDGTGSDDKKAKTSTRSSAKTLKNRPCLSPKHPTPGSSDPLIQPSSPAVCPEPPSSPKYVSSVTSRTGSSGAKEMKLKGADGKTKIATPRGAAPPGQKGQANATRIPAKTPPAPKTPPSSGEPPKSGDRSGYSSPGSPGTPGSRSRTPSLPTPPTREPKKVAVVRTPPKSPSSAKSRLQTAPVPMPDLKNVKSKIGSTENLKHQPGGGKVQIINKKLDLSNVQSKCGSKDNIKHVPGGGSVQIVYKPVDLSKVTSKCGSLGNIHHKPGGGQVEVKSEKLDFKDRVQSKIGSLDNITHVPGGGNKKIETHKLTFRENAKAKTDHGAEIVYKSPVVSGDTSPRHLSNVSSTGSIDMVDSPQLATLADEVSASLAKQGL

Structure (SMILES)	Potency	activity, negative = inhibition
COc1ccc(CC(=O)OCC(=O)Nc2cccc(Br)c2)cc1	inconclusive: 35.5 µM [inhibitor, single point]	–
Cc1cc2cc(CNS(=O)(=O)c3ccc4ccccc4c3)ccc2n1C	inconclusive: 6.31 µM [inhibitor, partial curve, poor fit]	–
O=C(Nc1cccc(F)c1)c1ccc(Br)o1	inconclusive: 14.1 µM [inhibitor, single point]	–
COc1ccccc1CN(C)C(=O)c1ccc2c(c1)NC(=O)CS2	–	inactive: -5.79%
Cc1nc(C/C(=N\Nc2ccccc2)c2ccc(O)cc2O)cs1	inconclusive: 25.1 µM [inhibitor, partial curve]	–
CCOC(=O)c1c(C)[nH]c(C(=O)CN2CC(C)OC(C)C2)c1C (centres undefined)	–	inactive: -12%
C/C(=N\NC(=O)COc1cc(C)cc(C)c1)c1ccc(N2CCOCC2)cc1	inconclusive: 3.55 µM [inhibitor, full curve]	–
COC(=O)c1c(-c2cccs2)csc1NC(=O)COc1ccc(C)cc1	inconclusive: 17.8 µM [inhibitor, partial curve]	–
COc1ccc(N2CCN(c3ncccn3)CC2)cc1	inconclusive: 14.1 µM [inhibitor, partial curve, poor fit]	–
Cc1ccc(C(=O)Nc2cccc3cccnc23)cc1Cl	inconclusive: 2.51 µM [inhibitor, full curve]	–
CC(=O)Nc1ccc(Nc2c([N+](=O)[O-])c(=O)n(-c3ccccc3)c3ccccc23)cc1	–	inactive: -7.18%
Cn1nnnc1SCCNCc1cc(Br)ccc1OCc1ccccc1Cl	–	inactive: -20.6%
O=C(CSc1ccc(-c2ccco2)nn1)NC1CCCCC1	inconclusive: 39.8 µM [inhibitor, single point]	–
COc1cc2c(cc1OC)C(C)N(C(=O)c1cc3n(n1)C(C(F)(F)F)CC(c1ccco1)N3)CC2 (centres undefined)	inconclusive: 28.2 µM [inhibitor, partial curve]	–
CCC(CC)C1C(C#N)=C(N)SC(N)=C1C#N	–	inactive: -1.7%
CCOC(=O)C1=C(C)OC(N)=C(C#N)C1c1ccc(O)c(OC)c1 (centres undefined)	inconclusive: 11.2 µM [inhibitor, partial curve]	–
Cc1ccc(OCCCCn2ccnc2)c(Cl)c1	–	inactive: -0.755%
Oc1ccc(C2C(c3ccccc3)=NN=C(c3ccc(Cl)cc3)N2O)c(O)c1 (centres undefined)	inconclusive: 35.5 µM [inhibitor, single point]	–
COc1cc2c(cc1OC)-c1cc3cc(OC)c(OC)cc3c(=O)n1CC2	inconclusive: 10 µM [inhibitor, partial curve]	–
Cc1ccc(CN2C(=O)c3ccccc3CC2(C)C(=O)NC2CCCCC2)cc1 (centres undefined)	–	inactive: -11.4%
COc1cc2c3c(c1)c(N=NC(N)=S)c(O)n3C(C)(C)C=C2C	inconclusive: 1.58 µM [inhibitor, partial curve]	–
CCOC(=O)c1cnn(-c2cc(Oc3cccc(C)c3)ncn2)c1N	inconclusive: 6.31 µM [inhibitor, full curve]	–
CCNC(=O)CCS(=O)(=O)c1ccc2ccccc2c1	–	inactive: -5.31%

Structure (SMILES)	Potency	activity, negative = inhibition
COc1ccc(C(CC(=O)Nc2ccc(C(C)=O)cc2)N2Cc3ccccc3C2=O)cc1 (centres undefined)	inconclusive: 15.8 µM [inhibitor, partial curve]	–
CCN=c1scc(-c2ccco2)n1/N=C/c1ccc(OC)c(O)c1	active: 10 µM	–
Cc1cccc2c1-c1sc(C(=O)N(C)c3cccc(Cl)c3)cc1CO2	inconclusive: 3.98 µM [inhibitor, full curve]	–
CC1CCc2nc3ccc(S(=O)(=O)N4CCC(C(=O)NC5CCCC5)CC4)cc3c(C(=O)O)c2C1 (centres undefined)	–	inactive: -17.7%
COc1ccc(/C=N/N2CCN(c3ccncc3S(=O)(=O)N3CCCCC3)CC2)cc1	inconclusive: 4.47 µM [inhibitor, full curve]	–
CC(C)OCCCNC(=O)C(=O)N/N=C/c1ccc(OCc2ccccc2)cc1	inconclusive: 2 µM [inhibitor, partial curve, poor fit]	–
CCCOc1ccc(-c2nc(SCC(=O)c3ccc(Cl)cc3)n[nH]2)cc1	inconclusive: 2.24 µM [inhibitor, full curve]	–
C=CCc1ccc(OCc2ccc(C(=O)OC)o2)c(OC)c1	inconclusive: 17.8 µM [inhibitor, partial curve]	–
CCCCC(CCCC)=N/N=C/c1c(O)n(CC)c2cc(C3=NNC(=O)CC3)ccc12	inconclusive: 28.2 µM [inhibitor, partial curve]	–
N#C/C(=N\Nc1ccc(S(=O)(=O)N2CCOCC2)cc1)C(N)=S	inconclusive: 28.2 µM [inhibitor, partial curve]	–
Cn1c(SCc2ccc(C#N)cc2Cl)nc2ccccc21	inconclusive: 28.2 µM [inhibitor, partial curve]	–
CCOC(=O)CSc1ccc(-c2nc3cc(C)c(C)cc3[nH]2)cn1	inconclusive: 3.16 µM [inhibitor, full curve, poor fit]	–
CC1CCCN(c2nc3ccccc3nc2C(C#N)S(=O)(=O)c2cccs2)C1 (centres undefined)	inconclusive: 15.8 µM [inhibitor, partial curve]	–
COc1ccc(-c2csc(=Nc3ccccc3)n2CCO)cc1F	inconclusive: 15.8 µM [inhibitor, partial curve]	–
O=C(N/N=C/C=C/c1ccco1)c1cccs1	inconclusive: 22.4 µM [inhibitor, partial curve]	–
CCOc1ccc(NC(=O)COc2ccc(S(=O)(=O)NC3CCCCC3)cc2)cc1	inconclusive: 3.98 µM [inhibitor, full curve, poor fit]	–
O=C(O)Cn1c(O)c(C=Nc2ccccc2)sc1=S	inactive and inconclusive: 25.1 µM [inhibitor, single point]	–
CSc1ncccc1C(=O)OCC(=O)c1ccc(Br)s1	inconclusive: 39.8 µM [activator, single point]	–
CCOCCCn1cc(C(=O)c2cc(Br)ccc2O)cc(C#N)c1=O	inconclusive: 22.4 µM [inhibitor, single point]	–
Cc1nc(NC(=O)c2ccccc2)sc1-c1csc(Nc2ccc(F)cc2)n1	active: 11.2 µM	–
CCC(=O)NC(=S)Nc1ccc(NC(=S)NC(=O)c2ccccc2)cc1	–	inactive: -7.36%
CCOC(=O)c1c(Nc2ccc(OC)cc2)nnc(-c2ccccc2)c1-c1ccccc1	inconclusive: 7.94 µM [inhibitor, full curve]	–
CCc1ccc(-c2cc(C(=O)NCCCn3ccnc3)c3ccccc3n2)s1	inconclusive: 20 µM [inhibitor, partial curve, poor fit]	–

Structure (SMILES)	Potency	activity, negative = inhibition
CCOC(=O)c1c(/N=C/C2=C(O)CCCC2=O)sc(C)c1C	inconclusive: 39.8 µM [inhibitor, single point]	–
Cc1ccc(S(=O)(=O)NCCc2cn3ccsc3n2)c(C)c1	–	inactive: -2.17%
O=C(Nc1ccc(N2CCOCC2)c(Cl)c1)c1ccc(Cl)cc1	inconclusive: 12.6 µM [inhibitor, partial curve]	–
O=S(=O)(c1cccc(-c2csc(-c3ccccc3)n2)c1)N1CCOCC1	inconclusive: 22.4 µM [inhibitor, single point]	–
CCNC(=S)Nc1cc(OCC)c(N2CCOCC2)cc1OCC	–	inactive: -5.75%
Cc1nc(C(=O)NNC(=O)c2ccc(C(F)(F)F)cc2)cs1	–	inactive: 4.43%
CC1CCN(c2cc(=O)n(C3CCCCC3)c(=O)[nH]2)CC1	inconclusive: 15.8 µM [inhibitor, single point]	–
CCOc1ccc(NC(=O)/C(C#N)=C\c2ccc(-c3ccc(Cl)cc3)o2)cc1	active: 1.41 µM	–
CN1CCN(Cc2cc(COCc3ccccc3)c3cccnc3c2O)CC1	inconclusive: 25.1 µM [inhibitor, single point]	–
O=C(NCc1ccco1)c1cccc(S(=O)(=O)N2CCCCC2)c1	–	inactive: -2.73%
OCC1OC(/C=C\c2ccccc2)C=CC1Oc1ccc2c(c1)OCO2 (centres undefined)	inconclusive: 5.62 µM [inhibitor, partial curve, poor fit]	–
C=CCOC(=O)C1=C[C@@H](c2ccc3c(c2)OCO3)C[C@@H](OCc2ccc(CO)cc2)O1	inconclusive: 28.2 µM [inhibitor, single point]	–
CCc1ccc(NC(=O)Cn2ccn(-c3ccc(C)c(C)c3)c(=O)c2=O)cc1	inconclusive: 14.1 µM [inhibitor, partial curve]	–
CCOc1ccc(N=Cc2c(O)n(-c3cccc(C)n3)c(=O)c3ccccc23)cc1	inconclusive: 14.1 µM [inhibitor, partial curve]	–
O=C(CCc1ccccc1)NC(NC(=S)Nc1cccc(Cl)c1)C(Cl)(Cl)Cl (centres undefined)	–	inactive: 9.64%
O=C(COc1ccccc1)NNC(=S)NC(=O)c1ccccc1	–	inactive: -16.2%
CCCS(=O)(=O)N1CCN(CC2CC3C=CC2C3)CC1 (centres undefined)	–	inactive: 1.85%
Clc1ccccc1/C=C/c1nc(-c2ccccn2)no1	inconclusive: 14.1 µM [inhibitor, partial curve]	–
COc1ccc(NC(=O)c2oc3ccccc3c2NC(=O)Cc2coc3c(C)c(C)ccc23)cc1	–	inactive: 11.1%
Cc1c(Cl)cnc(NC(=O)COC(=O)c2ccc3ncsc3c2)c1Cl	inconclusive: 39.8 µM [inhibitor, single point]	–
Cc1ccc(OCC(=O)Nc2ccc(N3CCN(C(=O)c4ccco4)CC3)cc2)cc1	inconclusive: 2 µM [inhibitor, partial curve]	–
CCOC(=O)N1CCC(NC(=O)c2ccc3c(c2)sc2nc(-c4ccccc4)cn23)CC1	inconclusive: 0.708 µM [inhibitor, full curve, poor fit]	–
CC(=O)Nc1ccc(OCC(O)CN2CCN(c3ccc(C)c(Cl)c3)CC2)cc1 (centres undefined)	inconclusive: 5.01 µM [inhibitor, partial curve]	–
